Reference: paper PMC8263776
Results are given in words; binding and its absence hold for the method and conditions named. Binding seen in cells or lysates may run through a third protein. Some entries that bind do so weakly or less than the wild type. For some assays here: Where a sequence is shown, tags or fusion partners need not be part of it.

By UniProt entry, the sequences of proteins in these tests, tags left out.
UniProt P15384: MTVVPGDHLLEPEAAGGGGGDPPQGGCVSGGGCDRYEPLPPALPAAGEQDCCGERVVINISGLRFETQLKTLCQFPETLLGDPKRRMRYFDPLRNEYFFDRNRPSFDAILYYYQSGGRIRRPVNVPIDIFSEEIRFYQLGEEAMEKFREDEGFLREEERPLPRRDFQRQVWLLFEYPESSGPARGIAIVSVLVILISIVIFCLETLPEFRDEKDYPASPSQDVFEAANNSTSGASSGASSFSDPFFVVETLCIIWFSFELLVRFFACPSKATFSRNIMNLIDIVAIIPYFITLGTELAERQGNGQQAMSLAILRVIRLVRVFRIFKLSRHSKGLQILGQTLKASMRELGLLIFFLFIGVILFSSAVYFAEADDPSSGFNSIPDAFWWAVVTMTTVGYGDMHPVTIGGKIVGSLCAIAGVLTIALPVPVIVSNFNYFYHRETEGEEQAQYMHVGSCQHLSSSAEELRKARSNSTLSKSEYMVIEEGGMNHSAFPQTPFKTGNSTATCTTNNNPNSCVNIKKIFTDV

Tests used:
KCNE4-CFP (mouse) = molecular target: T1, KCNE4-CFP (mouse) (UniProt Q9WTW3); assay: co-IP; KCNE4-CFP and KCNE4-HA in HEK-293 lysates in the presence or absence of co-expressed Kv1.3; IP with anti-tag antibody, blots against Kv1.3, KCNE4, GFP or HA
T1 sequence: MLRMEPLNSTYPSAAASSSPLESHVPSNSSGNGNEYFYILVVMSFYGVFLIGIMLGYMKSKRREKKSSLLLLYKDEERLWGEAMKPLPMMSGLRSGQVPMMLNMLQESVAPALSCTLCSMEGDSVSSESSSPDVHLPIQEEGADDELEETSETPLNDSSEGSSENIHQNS

Kv1.3-YFP (rat) = Kv1.3-YFP (rat) (UniProt P15384); assay: FRET or BRET; acceptor photobleaching in fixed HEK-293 cells, CFP donor and YFP acceptor

Substance: Kv1.3 (from UniProt P15384 1-525)
- binding (KCNE4-CFP (mouse)): binds

Substance: Kv1.3-CFP (from UniProt P15384 1-525)
- binding (Kv1.3-YFP (rat)): binds
